Assay results: the supplement of paper PMC3334620
The full ranking holds about 33,000 sequences; the median of “E-score (-0.5 to 0.5)” is about -0.035, and the highest 2% start at about 0.35. Some of the results follow.

The sequences below were run against T1, Pdr3 (UniProt P33200) (assay: PBM E-score (8-mer binding enrichment) (E-score (-0.5 to 0.5)); higher = stronger / more preferred TF binding; most listed sequences are background and not binding sites). Conditions: protein concentration: 200 nM; construct: GST-full length.
T1 sequence: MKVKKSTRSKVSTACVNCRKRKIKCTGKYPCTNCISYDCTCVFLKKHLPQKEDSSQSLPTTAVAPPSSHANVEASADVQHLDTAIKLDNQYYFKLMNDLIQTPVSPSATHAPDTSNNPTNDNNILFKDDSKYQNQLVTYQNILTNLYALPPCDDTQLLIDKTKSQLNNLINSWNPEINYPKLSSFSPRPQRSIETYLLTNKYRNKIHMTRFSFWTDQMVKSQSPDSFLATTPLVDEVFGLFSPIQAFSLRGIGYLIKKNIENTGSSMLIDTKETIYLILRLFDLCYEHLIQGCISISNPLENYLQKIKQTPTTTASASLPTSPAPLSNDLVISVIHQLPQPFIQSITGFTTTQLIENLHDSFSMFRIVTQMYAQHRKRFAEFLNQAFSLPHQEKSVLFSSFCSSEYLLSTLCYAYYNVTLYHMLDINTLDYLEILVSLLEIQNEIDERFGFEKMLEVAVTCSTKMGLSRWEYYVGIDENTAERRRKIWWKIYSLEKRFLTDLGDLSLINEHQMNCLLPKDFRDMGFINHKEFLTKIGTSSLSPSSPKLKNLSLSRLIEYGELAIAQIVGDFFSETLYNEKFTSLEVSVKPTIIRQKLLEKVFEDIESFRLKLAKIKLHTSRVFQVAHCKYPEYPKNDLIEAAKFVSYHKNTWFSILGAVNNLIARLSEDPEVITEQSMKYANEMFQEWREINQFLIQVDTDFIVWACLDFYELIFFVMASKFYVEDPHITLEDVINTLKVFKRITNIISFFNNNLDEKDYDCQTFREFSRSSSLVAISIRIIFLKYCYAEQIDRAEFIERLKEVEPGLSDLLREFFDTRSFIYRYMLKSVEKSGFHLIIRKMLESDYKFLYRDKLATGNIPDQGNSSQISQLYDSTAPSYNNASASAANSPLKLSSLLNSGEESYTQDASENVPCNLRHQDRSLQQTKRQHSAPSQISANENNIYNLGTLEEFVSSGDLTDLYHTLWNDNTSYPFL
Outline: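 PURExpress in vitro transcription/translation supplied GST-tagged yeast transcription factors, either full-length or DNA-binding domain. Applied at about 100-200 nM to universal all-10-mer Agilent arrays double-stranded by primer extension, the bound protein was detected with fluorescent anti-GST. E-scores, modified Wilcoxon-Mann-Whitney statistics, were given by the Universal PBM Analysis Suite to ungapped eight-base words pooled with their reverse complements after masliner normalisation.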

Sequence | PBM E-score
AAGTAAGG | -0.0828
TACTCGAA | -0.149
AAAGCATC | 0.0539
ATGGGGAA | 0.0538
GTGATCAC | -0.00647
AATCGACC | 0.0407
CATCAAAC | 0.0114
GGGTTGGA | 0.115
CAGTGGGA | -0.102
AGTAAGAT | -0.0128
AACTCTCA | -0.206
CTCCTGGC | -0.0304
GACTGGAA | -0.245
CCCACAAA | 0.0858
CTTACGGA | 0.237
CGGAGAAG | 0.28
AAATAGTG | -0.0421
ACCCTGGA | -0.254
AGGGCAGA | -0.308
TCTACCAA | -0.0675
ATCGAGCG | 0.214
CCCTGTCA | -0.221
GGTTGTTA | -0.0774
CGAACCAG | 0.069
AATGCAAT | -0.324

Sequence | PBM E-score
AATCGGAT | 0.317
CCAGTCGA | -0.05
GGGAACGA | 0.0381
AGTCTTCG | -0.202
GATCTACA | 0.0626
ACAGACCT | 0.072
ACGGTTGA | -0.0694
AGTACCCG | 0.198
AAAATTCA | 0.0718
CAAAGGTC | -0.158
CAAGCTCC | -0.0359
AACTGTGC | -0.154
GTGCACTA | 0.0628
GCTGTCAA | -0.0502
AAGGAAGG | -0.205
TCAGAACA | -0.107
CACTAGTC | -0.0804
CCCACGGG | 0.311
ACCAGTGC | -0.309
AAGTGAGT | -0.109
CGGTAAGA | 0.204
TAAGTATA | 0.0261
ATAGACCA | -0.0783
TCCCCAGA | -0.212
ATCACCGA | 0.0155

Sequence | PBM E-score
GCGAGTAA | 0.169
CATTGCGC | 0.0238
GGCACCAC | 0.0627
AATTCCCT | -0.207
AACACACC | 0.15
ATATTGCC | -0.0524
ACAAAGTA | -0.0427
AGTACATC | -0.105
AGGCGCCC | -0.0609
CGACAGTA | 0.0677
AGTAATAC | 0.0919
AAAGTAAC | 0.0284
ACCTCTAG | -0.0623
AGTGAATA | -0.00303
GGCGCAAC | 0.102
ACGCCCAA | 0.00636
CGGCTGGA | 0.228
ACGAAGAC | -0.173
CGCTCTGA | 0.0645
CCCCGGTC | 0.137
ACCGTTCG | 0.0291
CATCAGCA | -0.0707
CGTGGCTA | -0.0717
GATCCATC | 0.232
CATTGGGA | -0.109

Sequence | PBM E-score
AATCAATA | 0.0626
TGCCCCCA | -0.276
CCAGTTGC | -0.176
ATCATTAA | 0.136
ACAGCGAA | -0.03
TGAGAGCA | -0.0205
CCCCTCCG | 0.251
AACCAATA | 0.0232
AAGTGTTG | 0.0656
AACGAACC | 0.0386
TACAGTCA | -0.157
AGTACTCC | 0.151
CGTCAGCA | -0.0948
ACACGGGC | 0.171
AATTTTCT | -0.0164
AACAGTCT | -0.212
GATCTAAC | 0.0861
AATATATG | 0.164
CCCGCCAC | 0.254
AAAGGGCG | 0.0479
TACGCCAA | -0.311
CTTCGTCA | -0.0401
CGATACAC | -0.185
CGCCGAGA | 0.228
ATAAATCC | 0.0975

Sequence | PBM E-score
AACAAAGT | 0.209
CCCGATTC | 0.134
ATTTGAAC | 0.0748
ACACTGAC | 0.0461
ACACCTAG | -0.208
CGGCACGA | 0.292
CACCTATG | -0.12
ACCTGTCA | -0.19
GCGTGCTA | -0.338
CTGCTCTA | -0.0167
ATAGATGG | -0.184
CATGTTCC | 0.281
GCTGCCTA | -0.102
ACGGGTGC | 0.135
AAATCTAC | 0.0743
CAATTATA | -0.157
CGCCTTTA | -0.0716
CGGTAGTA | -0.09
GCTTGTGA | -0.252
CCAGTCTA | -0.261
GAGCGGCC | 0.0807
ACAAGCGA | 0.0877
CCTGATAC | -0.0182
CAGTGTTC | 0.11
AAATCTGT | 0.00886

Sequence | PBM E-score
AAAATAGT | -0.0861
ATCTCGTC | 0.0833
CCACTGCG | -0.00589
AGCCCAAG | -0.136
AAAGCGGT | -0.0821
ATGTTCGC | -0.165
GATCTCTA | -0.17
CCTTCGAC | -0.191
ACTTAACG | -0.234
CACGCTGC | -0.115
CAAGAGGC | -0.113
AGGTCCAC | -0.095
GGGTTCAC | 0.179
ATGCTGTA | -0.0465
GAGTATCC | 0.189
CATAGACC | -0.0935
GGGATCTA | 0.105
CTAACAGC | 0.101
ATAGCCGA | 0.191
TCGTCCCA | -0.04
AACGCAGT | -0.121
ATTTGTAA | -0.00432
CAGCCCTA | 0.113
AATATATA | 0.0898
ATGTGAAA | -0.184

Sequence | PBM E-score
ACCACCAA | -0.0661
CTCAGTGA | -0.36
AAGTGCTC | -0.107
GCTGTAGA | 0.0283
ACAATTCT | -0.127
ATGATCAG | -0.221
GAGTATCA | -0.0466
TCGCATCA | 0.169
CAGTAGTA | -0.146
AAAACCGT | -0.0753
AATCGGAA | 0.445
AGCTTCCT | -0.0692
GGGGAGGA | 0.0182
CTTCTACA | -0.161
CGCCAACA | 0.0251
CTTGTAAA | -0.127
GCAGGGAA | 0.0453
AGGACCCG | 0.17
ATTTCGTG | 0.0103
GAACCTTA | 0.237
AGTAATGG | -0.0776
ATGGTTGG | -0.0179
